Test results as given in PubChem BioAssay AID488969 (Vanderbilt High Throughput Screening Facility, 2010).
Whole data set: some 110,000 compounds, median “z-score” near -0.1, cut for the highest 2% near 2. Some of the results follow. Calls of active or inactive are those of the source.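 The calls were made as follows: active = z-score in the third read window above 3 or below -3; inactive = the rest.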

What follows are compounds tested against Metabotropic glutamate receptor 8 (Rattus norvegicus) (UniProt P70579) (assay: mGluR8 Gi/Go-coupled signaling modulation – cell-based, rat, thallium flux, HTS, primary screen (AID 488969)). Conditions: HEK293 rat mGluR8, GIRK (G protein-gated inwardly rectifying potassium channel) thallium flux, FluoZin2; at 10 µM; stronger effect = higher value; submaximal glutamate (EC20) added with thallium.
Sequence of UniProt P70579 (P70579 whole entry, looked up): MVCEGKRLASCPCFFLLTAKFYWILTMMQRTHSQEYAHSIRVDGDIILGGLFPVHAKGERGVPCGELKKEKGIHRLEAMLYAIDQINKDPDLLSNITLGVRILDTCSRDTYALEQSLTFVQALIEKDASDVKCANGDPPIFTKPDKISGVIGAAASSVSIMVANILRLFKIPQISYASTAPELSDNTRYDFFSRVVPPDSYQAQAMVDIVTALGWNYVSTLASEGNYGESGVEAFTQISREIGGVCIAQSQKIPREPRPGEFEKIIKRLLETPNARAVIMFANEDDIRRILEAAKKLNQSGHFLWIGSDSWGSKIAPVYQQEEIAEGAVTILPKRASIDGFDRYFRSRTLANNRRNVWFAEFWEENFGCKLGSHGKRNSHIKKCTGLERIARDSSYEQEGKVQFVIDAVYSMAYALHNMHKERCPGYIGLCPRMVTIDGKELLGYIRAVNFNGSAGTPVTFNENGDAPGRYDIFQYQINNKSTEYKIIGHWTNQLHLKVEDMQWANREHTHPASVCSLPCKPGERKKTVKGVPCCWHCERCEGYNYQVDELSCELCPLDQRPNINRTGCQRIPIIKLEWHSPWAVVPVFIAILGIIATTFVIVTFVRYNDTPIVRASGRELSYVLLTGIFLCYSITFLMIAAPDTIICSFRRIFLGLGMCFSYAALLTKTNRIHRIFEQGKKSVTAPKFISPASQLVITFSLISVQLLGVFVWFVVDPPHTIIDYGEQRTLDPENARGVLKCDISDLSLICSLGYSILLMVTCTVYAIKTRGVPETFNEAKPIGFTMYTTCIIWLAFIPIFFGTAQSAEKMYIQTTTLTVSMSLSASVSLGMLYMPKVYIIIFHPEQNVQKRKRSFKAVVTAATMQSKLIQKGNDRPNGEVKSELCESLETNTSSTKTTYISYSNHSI
Work on `Cc1cc(C=O)c(C)n1-c1ccc(N2CCCC2)c([N+](=O)[O-])c1` yielded a z-score of -1.56. With `COc1cccc(N(CC(=O)Nc2cccc(C(C)=O)c2)S(C)(=O)=O)c1` the z-score was active: 4.2. Work on `CC(C)(C)c1nc2scc(-c3cccs3)c2c(=O)o1` yielded a z-score of 0.0256. In the case of `CC1CCCCN1c1nc2nonc2nc1N1CCCCC1C` (centres undefined), the z-score is reported as -0.406. Compound `O=c1c2ccccc2nc(COc2ccccc2)n1/N=C/c1cc([N+](=O)[O-])ccc1O` has a z-score of 0.00614. `C/C(=N/NC(N)=S)c1ccccc1[N+](=O)[O-]` was tested, and the z-score was 0.0329. In the case of `Clc1ccc(-c2ccnc(Oc3cc(Cl)ccc3Cl)n2)cc1`, the z-score is reported as -0.0489. In the case of `C/[N+]([O-])=C1\Cc2ccccc2C1=O`, the z-score is reported as 0.0681. Work on `COc1ccccc1N1N=C(c2cccs2)CC1c1ccccc1` (centres undefined) yielded a z-score of -0.269. In the case of `COc1ccc(-c2cc(C(F)(F)F)nc(SCC(=O)N3CCOCC3)n2)cc1OC`, the z-score is reported as -0.127. With `CCOc1ccc(C(=O)CCc2nc3ccccc3s2)cc1` the z-score was -0.389. `O=C(CCNc1cccc(Cl)c1)c1cccs1` gave a z-score of 1.4. For `Cc1nc(N/N=C/c2ccccc2)nc(N(C)c2ccccc2)c1[N+](=O)[O-]`, the z-score was -0.198. `COc1ccc(-c2nnc(-c3cccs3)o2)cc1OC` gave a z-score of -0.0864. `Brc1ccc(-c2csc(NC3=NCCCCC3)n2)cc1` showed a z-score of -2.18. Compound `CCN(CC)S(=O)(=O)c1ccc(N2CCOCC2)c(C(=O)O)c1` has a z-score of -0.625. In the case of `CC1CCN(c2nc3c(c(=O)[nH]c(=O)n3C)n2CCSc2nc3ccccc3o2)CC1`, the z-score is reported as 0.0449. For `CCOC(=O)c1c(NC(=O)c2ccoc2C)sc(C(=O)N(C)C)c1C`, the z-score was -0.113. Compound `O=C(Nc1ccccc1Oc1ccccc1)c1cc([N+](=O)[O-])ccc1Cl` has a z-score of -0.493. Work on `COC(=O)CSc1nnc([C@H](Cc2ccccc2)NC(=O)OC(C)(C)C)o1` yielded a z-score of 0.138. `Nc1cc(=O)[nH]c(SCCNS(=O)(=O)c2ccccc2)n1` was tested, and the z-score was -0.896. `O=C(c1ccc(Br)s1)N1CCN(C/C=C/c2ccccc2)CC1` showed a z-score of -0.21. For `Cc1nn(C)c(C)c1CN(C)C(=O)c1cc2nc(-c3ccco3)cc(C(F)(F)F)n2n1`, the z-score was 0.382. `Cc1ccnc(NC(=O)/C=C/c2cccs2)c1` gave a z-score of -0.491. In the case of `Cc1ccc(CNc2ccc(CNc3ncn[nH]3)cc2)cc1`, the z-score is reported as 0.173. For `O=C(Nc1ccccc1)Nc1nnc(-c2cccs2)s1`, the z-score was -0.264. `CC/C(=N/O)c1cnnc(SC)n1` was tested, and the z-score was -0.0711. `COCC(=O)NCCc1nc(-c2ccccc2)cs1` was tested, and the z-score was -0.0682. Work on `O=C(NCc1ccc(-c2nc3ccccc3s2)cc1)c1ccc(Br)o1` yielded a z-score of -0.21. In the case of `O=C(CC1(O)C(=O)Nc2ccccc21)c1ccc2c(c1)OCO2` (centres undefined), the z-score is reported as 0.211. With `CCC1Oc2ccc(C)cc2N(CC(=O)N(Cc2ccncc2)Cc2ccco2)C1=O` (centres undefined) the z-score was -1.65. In the case of `COC(=O)c1[nH]c2ccc(C)cc2c1NC(=O)c1ccccc1[N+](=O)[O-]`, the z-score is reported as 0.816. In the case of `CCC(C)[C@H](NC(=O)NCc1ccccc1)C(=O)O` (some centres undefined), the z-score is reported as -0.254. `O=[N+]([O-])c1ccc(Sc2nc3ccccc3o2)c([N+](=O)[O-])c1` gave a z-score of 1.27. For `CCn1ncc2c1C(=O)NC1c3ccccc3C(=O)N21` (centres undefined), the z-score was 0.156. In the case of `COc1cccc(-c2nnc(N(C)C(=O)c3ccno3)s2)c1`, the z-score is reported as -0.545. In the case of `O=C(CN1CCc2ccccc2C1)Nc1cc(S(=O)(=O)N2CCOCC2)ccc1N1CCCC1`, the z-score is reported as -0.328. In the case of `CSCCC(NS(=O)(=O)c1ccc(Cl)cc1)C(=O)OCC(=O)NC1CCCCC1` (centres undefined), the z-score is reported as -0.148. In the case of `CC(=O)NC1=NN(C(C)=O)C(C)(CS(=O)(=O)c2ccc3ccccc3c2)S1` (centres undefined), the z-score is reported as 0.537. With `Clc1ccc(-c2csc3ncnc(NCCN4CCOCC4)c23)cc1` the z-score was 0.63. `COc1ccc(NC(=S)N2CCC(N(C)CC3CCCO3)CC2)cc1Cl` (centres undefined) showed a z-score of 0.164. `Cc1nc(CC(=O)c2c(C)cc(O)cc2O)cs1` gave a z-score of -0.458. `CCOC(=O)N1CCN(C(=O)CCn2nc(-c3ccc(Cl)cc3)ccc2=O)CC1` was tested, and the z-score was -0.736. `Cc1ccc(NC(=S)N(CCCN2CCOCC2)Cc2ccccn2)cc1` showed a z-score of 0.169. `CC(C)COP(=O)(c1ccc(N(C)C)cc1)C(Nc1ccccc1)c1ccccc1` (centres undefined) was tested, and the z-score was -0.803. For `COc1cc(OC)c(C2=NOC(C(=O)NCCc3ccccc3)C2)cc1Cl` (centres undefined), the z-score was -0.272. For `Cc1ccccc1OCC(=O)NC(=S)Nc1ccc(N2CCOCC2)c(Cl)c1`, the z-score was 0.328. `Cc1cc(C)c2nc(SCc3ccc([N+](=O)[O-])cc3)nc(C)c2c1` showed a z-score of -0.294. With `CC(=O)c1cccc(-n2c(CCC(=O)O)ccc2-c2cccs2)c1` the z-score was -0.777. `CCSc1nnc(NC(=O)CSc2nc3c(c(=O)n2-c2ccccc2)SCC3)s1` gave a z-score of -0.397. Compound `COCCNC(=O)C(c1ccco1)N(C(=O)Cn1nnc2ccccc21)c1cccc(C)c1C` (centres undefined) has a z-score of 0.429. For `Clc1nc(NCc2cccnc2)nc(N2CCOCC2)n1`, the z-score was -0.546. Compound `COc1cc(OC)cc(C(=O)N2c3ccc(F)cc3CCC2C)c1` (centres undefined) has a z-score of -1.02. Compound `COc1ccc(CN2CCCC(C(=O)N(C)Cc3ccccc3)C2)cc1OC` (centres undefined) has a z-score of -0.456. For `CCSc1ccc(-c2nn(-c3ccccc3)cc2/C=C(/C#N)C(=O)NC)cc1`, the z-score was -0.126. Compound `O=C(/C=C/c1c(F)cccc1Cl)Nc1ncccn1` has a z-score of -0.288. With `Oc1ccc(N=Nc2nc(-c3ccccc3)c(-c3ccccc3)[nH]2)cc1` the z-score was -0.218. `FC(F)(F)c1nc2ccccc2n2c(-c3ccc(Cl)cc3Cl)nnc12` was tested, and the z-score was -0.146. Work on `CN(C)N1C(N)=C(C#N)C(c2ccsc2)C2=C1CCCC2=O` (centres undefined) yielded a z-score of -0.193. With `CN1CCN(C2CCCCCC2)CC1` the z-score was 0.192. `COc1ccc(NC(=O)CC2C(=O)N(c3ccc(Cl)cc3)C(=S)N2NC(=O)c2cccc(F)c2)cc1` (centres undefined) gave a z-score of 0.0601. Work on `Cc1cc(C)cc(NC(=O)C2CCN(S(=O)(=O)c3c(C)n[nH]c3C)CC2)c1` yielded a z-score of -0.0293. `COc1ccc(Cl)cc1N1C(=O)C2CCCN2C1c1ccc(F)cc1` (centres undefined) showed a z-score of -0.785. Compound `CCN1C(=O)CC(NCc2ccc3c(c2)OCO3)C1=O` (centres undefined) has a z-score of 0.243. Work on `CCOc1nc(-c2ccc(OC)cc2)ccc1-c1noc(C)n1` yielded a z-score of -0.105. Compound `O=C(CSCCc1ccccn1)Nc1ccccn1` has a z-score of -0.34. Compound `CCc1nc(SCC(=O)N2c3ccccc3CC2C)c2c(C)c(C)sc2n1` (centres undefined) has a z-score of 0.0133. `Cc1c(NC(=O)c2ccc(CN3CCc4ccccc4C3)cc2)c(=O)n(-c2ccccc2)n1C` showed a z-score of 0.529. In the case of `O=C(NCC(=O)N(CC1CCCO1)C(C(=O)NC1CCCCC1)c1ccc(F)cc1)c1ccco1` (centres undefined), the z-score is reported as 0.579. Compound `CCc1ccc(OCC(=O)N/N=C(\C)c2ccc3c(c2)OCCO3)cc1` has a z-score of -0.773. Work on `CC(NC(=O)COc1ccc(/C=N/NC(=O)C(=O)Nc2ccccc2Br)cc1)c1ccccc1` (centres undefined) yielded a z-score of 0.00853. `O=C(NCCc1c[nH]c2ccccc12)C1Cc2ccccc2CN1C(=O)c1ccco1` (centres undefined) showed a z-score of 0.0151. With `O=C1CCCC(O)=C1N=Nc1ccc2c(c1)OCO2` the z-score was -0.0975. `CC(O)/C=C/c1cccc[n+]1C` (centres undefined) gave a z-score of -0.0236. `Cc1ccc(S(=O)(=O)N(CCCO)CC(O)CON=C2c3ccccc3-c3ccccc32)cc1` (centres undefined) was tested, and the z-score was 0.262. In the case of `COc1cccc(C(=O)N2CCN(C(=O)c3cccc(F)c3)CC2)c1`, the z-score is reported as 0.212. `CSc1nc(C)c(C(=O)Nc2ccccc2)c(C)c1C#N` showed a z-score of 1.32. `CCN1CN(Cc2ccco2)CNC1=S` gave a z-score of -0.106. `COc1cc(NC(=O)CSCc2cnn(-c3ccccc3)c2-n2cccc2)cc(OC)c1` was tested, and the z-score was active: 7.86. Compound `COCCN(C(=S)Nc1cccc(OC)c1)C(C)c1cccs1` (centres undefined) has a z-score of -0.334. With `CC(C)(C)n1nnnc1CN(Cc1ccco1)Cc1cc2cc3c(cc2[nH]c1=O)OCO3` the z-score was 1.88. `NS(=O)(=O)c1ccc(NC(=S)Nc2cc(Cl)c(Cl)cc2Cl)cc1` was tested, and the z-score was -0.16. `NC(=O)c1ccccc1NC(=O)/C=C/c1ccc(Cl)cc1` showed a z-score of 0.0369. With `CSc1nc(NC(C)(C)C)nc(Oc2ccc(=O)n(C)n2)n1` the z-score was -0.417. `O=C(Nc1ccc(F)cc1F)c1cccn1-c1ncc(C(F)(F)F)cc1Cl` gave a z-score of -0.267. `C/C(=N/NC(=O)c1sc(NS(=O)(=O)c2ccccc2)nc1C)c1ccc(F)cc1` showed a z-score of -0.895. `Cc1ccccc1Oc1ncccc1C(=O)/C(C#N)=C/N(C)C` was tested, and the z-score was 0.0796. In the case of `CCOC(=O)N1CCN(C(=O)Nc2ccc3nc(C)c(C)nc3c2)CC1`, the z-score is reported as 0.246. In the case of `Cc1ccc(COc2ccc(/C=N/NC(=O)c3ccc(CN4CCOCC4)cc3)cc2)cc1`, the z-score is reported as 0.76. `Cc1ccc(-c2nc3ncccn3c2NC(=O)C2CC2)cc1` was tested, and the z-score was 0.268. With `O=C(/C=C/c1ccc2c(c1)OCO2)Nc1nc2ccccc2s1` the z-score was -0.342. `COc1ccc(CNS(=O)(=O)c2ccc(C3CNC(=O)C3)cc2)cc1` (centres undefined) showed a z-score of 0.726. Work on `Cc1nc2sc(C(c3ccccc3)N3CCN(C(=O)c4ccco4)CC3)c(O)n2n1` (centres undefined) yielded a z-score of 0.788. Work on `Cc1ccc(CSCC(=O)N2CCN(Cc3ccc4c(c3)OCO4)CC2)cc1` yielded a z-score of 0.00333. `COc1ccc(C(=O)n2cc(C(=O)c3cc(C)ccc3O)cn2)cc1OC` gave a z-score of -1.15. Work on `Cn1c(SCC(=O)c2ccc(-c3ccccc3)cc2)nnc1-c1ccco1` yielded a z-score of 0.189. `O=C(Nc1cccc2ccccc12)N1CCc2ccccc2C1` was tested, and the z-score was -0.396. In the case of `CC1(C)Cc2c(sc3ncn(N)c(=N)c23)CO1`, the z-score is reported as -0.494. `Cc1ccc(C(=O)NC(NC(=O)c2ccc(C)cc2)c2cccc([N+](=O)[O-])c2)cc1` was tested, and the z-score was 0.0868. `Cc1ccc(NS(=O)(=O)c2ccc(OCC(=O)Nc3cccc([N+](=O)[O-])c3)c(C)c2)cc1` showed a z-score of -0.0659. `NC(=O)CS(=O)(=O)c1nc2ccccc2n1CC(=O)N1CCCCC1` was tested, and the z-score was 0.0496. `CC(=O)Nc1ccc(C(=O)OCC(=O)NC(=O)NC(C)(C)C)cc1` showed a z-score of -0.0333. `COc1ccccc1N1C(=O)CC(Nc2ccc(N3CCOCC3)cc2)C1=O` (centres undefined) showed a z-score of -0.136. For `COc1cc(C(=O)NCC(c2ccco2)N(C)C)cc(OC)c1OC` (centres undefined), the z-score was -0.242. `CS(=O)(=O)N(CC(=O)NCc1ccccc1)Cc1ccc(Cl)cc1` gave a z-score of -0.233. In the case of `CC(C)(C)c1ccc(-c2nc(C=O)c3ccccn23)cc1`, the z-score is reported as -0.464. Compound `CS(=O)(=O)N(CC(=O)N1CCN(c2ccccc2)CC1)c1cc(C(F)(F)F)ccc1Cl` has a z-score of -0.525. Work on `O=C(NN1C(=O)C2C(c3ccccc3)C=CC(c3ccccc3)C2C1=O)c1ccccc1` (centres undefined) yielded a z-score of 0.374. In the case of `O=C1CC(c2ccc(Cl)cc2)n2nc(N3C(=O)c4ccccc4C3=O)nc2N1` (centres undefined), the z-score is reported as -0.261.
